Assay results as given in PMC4336329 (PLoS ONE, 2015).
About 14,000 (4.5%) of roughly 310,000 compounds showed an effect of 50% or more. Effects have a minus sign here. This is one part of the list.

What follows are molecules tested against human ether-à-go-go-related gene (hERG) potassium channel (human, UniProt Q12809) (assay: primary screen, population patch clamp on CHO cells stably expressing hERG).
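Note: peak tail current of the secondary pulse compared with the same well before compound.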

human ether-à-go-go-related gene (hERG) potassium channel, sequence (Q12809 whole entry, looked up): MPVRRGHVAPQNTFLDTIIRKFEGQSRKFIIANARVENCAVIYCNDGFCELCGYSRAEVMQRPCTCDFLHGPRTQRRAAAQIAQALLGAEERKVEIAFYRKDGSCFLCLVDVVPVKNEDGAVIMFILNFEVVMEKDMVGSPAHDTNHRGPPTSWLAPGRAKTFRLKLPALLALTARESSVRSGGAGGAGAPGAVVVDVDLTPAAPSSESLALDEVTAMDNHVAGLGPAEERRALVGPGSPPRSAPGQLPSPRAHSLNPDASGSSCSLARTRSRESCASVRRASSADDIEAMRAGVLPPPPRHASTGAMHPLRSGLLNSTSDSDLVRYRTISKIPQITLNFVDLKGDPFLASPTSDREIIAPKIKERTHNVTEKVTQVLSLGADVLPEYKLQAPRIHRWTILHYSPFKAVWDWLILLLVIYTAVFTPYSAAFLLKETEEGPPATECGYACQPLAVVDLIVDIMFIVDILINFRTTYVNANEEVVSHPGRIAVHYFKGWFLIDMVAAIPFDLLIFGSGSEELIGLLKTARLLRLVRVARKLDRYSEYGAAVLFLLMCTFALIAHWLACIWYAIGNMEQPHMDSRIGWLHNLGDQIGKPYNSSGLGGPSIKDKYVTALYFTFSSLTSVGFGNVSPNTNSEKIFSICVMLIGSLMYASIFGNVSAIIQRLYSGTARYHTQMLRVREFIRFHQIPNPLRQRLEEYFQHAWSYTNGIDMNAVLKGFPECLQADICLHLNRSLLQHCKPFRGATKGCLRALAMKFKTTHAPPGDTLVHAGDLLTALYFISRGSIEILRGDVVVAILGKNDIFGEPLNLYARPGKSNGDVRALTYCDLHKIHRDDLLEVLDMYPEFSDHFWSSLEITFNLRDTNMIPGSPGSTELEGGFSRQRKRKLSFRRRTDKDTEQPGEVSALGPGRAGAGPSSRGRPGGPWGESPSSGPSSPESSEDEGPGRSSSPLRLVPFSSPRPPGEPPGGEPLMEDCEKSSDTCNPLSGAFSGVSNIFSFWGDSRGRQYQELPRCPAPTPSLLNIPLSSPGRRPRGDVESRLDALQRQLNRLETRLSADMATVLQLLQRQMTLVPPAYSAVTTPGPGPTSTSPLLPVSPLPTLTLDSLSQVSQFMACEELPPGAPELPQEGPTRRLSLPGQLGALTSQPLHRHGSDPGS

| SMILES | hERG current change (%, negative = inhibition) at 10uM [%] |
| --- | --- |
| COc1ccc(NC(=O)N2CCCc3ccccc32)c(OC)c1 | -9.58 |
| Cc1ccc(OCc2nnc(NC(=O)OCC(C)C)s2)c(C)c1 | 21 |
| Cc1cc2cc3c(cc2nc1SCC(=O)O)CCC3 | -0.223 |
| O=C(CN1CCN(Cc2ccccc2)CC1)Nc1ccc(F)c(F)c1.O=C(O)C(=O)O | -57.1 |
| COc1ccc(S(=O)(=O)NCC2CCCN(C(=O)c3cccnc3C)C2)cc1 (centres unmarked) | 28.1 |
| COCCNC(=O)CN1CCOc2ccccc21 | -0.989 |
| O=S(=O)(/N=C(/c1ccccc1Cl)N1CCOCC1)c1ccccc1 | 8.34 |
| c1ccc(Cn2ncc3c(Nc4ccccc4)ncnc32)cc1 | 6.01 |
| CC(NC(=O)c1ccc(Br)s1)C1CCCO1 (centres unmarked) | 7.48 |
| C=C(C)[C@H]1CC=C(C)/C(=N/NC(=O)CNc2ccccc2OC)C1 | 20.4 |
| NNC(=O)c1cccc(COc2ccccc2Br)c1 | -4.08 |
| CC(=O)c1sc(NC(=O)CCCOc2ccc(Cl)cc2)nc1C | 14.7 |
| CCOc1cccc(/C=N/NC(=S)NCCN2CCOCC2)c1O | 26.4 |
| COC(=O)[C@@H]1CCCN1C(=O)c1ccc(OC2CCN(Cc3ccccn3)CC2)cc1 | 20.7 |
| O=C(CSc1ccc(-c2ccco2)nn1)N1CCCC1 | -8.96 |
| Cc1ccccc1CNc1ccc(C(CC(N)=O)NC(=O)c2ccc(Br)cc2)cc1[N+](=O)[O-] (centres unmarked) | 18.3 |
| CCOc1ccccc1-c1nc(C(N)=O)c2[nH]c(=O)n(-c3cccc(C)c3)c2n1 | -27.1 |
| Cc1cc(C)nc(Nc2n[nH]c(COc3ccccc3)n2)n1 | 6.41 |
| O=C(NCCN1CCN(c2ccccc2)CC1)Nc1cccc(Br)c1 | -58.1 |
| O=C(c1ccco1)c1nnn(Cc2ccccc2)c1-c1ccccc1 | -10.7 |
| O=C1c2ccc3c4c(ccc(c24)C(=O)N1c1cccc(O)c1)C(=O)N(c1cccc(O)c1)C3=O | 8.86 |
| CC(=O)C1=C(C)OC(N)=C(C#N)C1c1cccc([N+](=O)[O-])c1 (centres unmarked) | 7.17 |

| SMILES | hERG current change (%, negative = inhibition) at 10uM [%] |
| --- | --- |
| Cc1cccc2c(N=NC(=O)C(C)n3cnc4ccccc4c3=O)c(O)[nH]c12 (centres unmarked) | -28.9 |
| Cc1ccc(C)c(OCC(O)CN2C(C)CCCC2C)c1.Cl (centres unmarked) | -67.9 |
| CSc1nc2n(n1)C(c1ccccn1)C1=C(CC(C)(C)CC1=O)N2 (centres unmarked) | 11.2 |
| O=c1nc(N2CCCCC2)nc(Nc2ccccc2)[nH]1 | -17.6 |
| Cc1cc(C)cc(N(C(=O)c2snc(C(N)=O)c2N)C(C(=O)NCC2CCCO2)c2cccs2)c1 (centres unmarked) | -18.7 |
| COc1ccc(CCNC(=O)C(=O)NCC2OCCN2S(=O)(=O)c2ccc(OC)c(OC)c2)cc1OC (centres unmarked) | 9.05 |
| O=S(=O)(NCC(c1ccccc1)N1CCC(O)CC1)c1ccc(Cl)cc1 (centres unmarked) | -19.6 |
| O=C(N/N=C/c1cn[nH]c1-c1ccccc1)c1ccco1 | 11.6 |
| COc1cccc(CNc2ccccc2O)c1OCc1ccccc1F | -1.17 |
| CC(C)[C@H](Nc1ncnc2c1oc1ccccc12)C(=O)O | 23.6 |
| O=C(NCc1ccco1)c1nc2nc(-c3cccs3)cc(C(F)(F)F)n2n1 | -29.6 |
| Cc1cccc(-n2ncc3c(N4CCOCC4)ncnc32)c1 | -43.4 |
| CCn1c(SCC(=O)NNC(=O)c2ccccc2)nnc1-c1ccncc1 | -5.25 |
| CCOC(=O)CN(Cc1sccc1C)C(=O)Nc1cccc(OC)c1 | 7.38 |
| Cc1nonc1NC(=O)CSc1nnc(-c2ccoc2C)n1-c1cccc(Cl)c1 | -77.9 |
| CCn1c(SCC(=O)Nc2ccc(F)cc2)nnc1-c1cnccn1 | -56.8 |
| Cc1cc2c(=O)n(NC(N)=O)c(C)nc2s1 | -2.05 |
| COc1cc(C2CC(=O)N(CC(=O)NCc3ccco3)c3ccccc3S2)cc(OC)c1OC (centres unmarked) | -19.1 |
| O=C1C[C@H](NC(=O)OCc2ccccc2)CO1 | 6.32 |
| CCc1n[nH]c(=S)n1/N=C/c1cc(Br)c(O)c(OC)c1 | 18.1 |
| O=C(NNC(=S)NC1CCCCC1)c1ccccc1Br | 12.7 |
| CCN(CC)S(=O)(=O)c1cccc(C(=O)N[C@H](C(=O)OCC(=O)Nc2ccccc2)C(C)C)c1 | -25.6 |

| SMILES | hERG current change (%, negative = inhibition) at 10uM [%] |
| --- | --- |
| Cc1ccc(CNC(=O)CN(C(=O)C2(C)CC(=O)N=C3C=CC=CN32)c2cc(C)ccc2C)cc1 (centres unmarked) | 13.6 |
| O=C(O)c1cc(-c2cccnc2)nn1-c1ccccn1 | -18.1 |
| O=C(O)C1(P(=O)(c2ccc(Cl)cc2)c2ccc(Cl)cc2)CCCC1 | 5.46 |
| O=C(COC(=O)c1ccc(-n2cnnn2)cc1)Nc1cc(Cl)ccc1F | -0.927 |
| Cc1[nH]c2ccc(Cl)cc2c(=O)c1CN1CCCC1 | 1.86 |
| COc1ccc(OCC(=O)Nc2cc(S(=O)(=O)N3CCCCC3)ccc2OC)cc1 | -28.5 |
| Cc1ccc(S(=O)(=O)c2ccc(Cl)cc2)cc1S(=O)(=O)N(C)CC(=O)O | 22.8 |
| COc1ccc(C(=O)N2CC3(CC(c4cccc([N+](=O)[O-])c4)=NO3)C[C@H]2C(=O)NCC(N)=O)cc1 (some centres unmarked) | 8.99 |
| COc1ccc(CNC(=O)COC(=O)CCN2C(=O)C3CC=CCC3C2=O)cc1OC (centres unmarked) | 15.7 |
| O=C(c1ccccn1)N(CC1CCCO1)C1(C(=O)NC2CCCCC2)CCCCC1 (centres unmarked) | -4.56 |
| CCC(C)(C)C1CCc2[nH]nc(C(=O)N/N=C(\C)c3ccco3)c2C1 (centres unmarked) | -12.1 |
| Cc1ccc(CC2C(=O)N(c3cc(Cl)ccn3)C(=O)C2C)cc1 (centres unmarked) | -9.63 |
| Cc1ccc2ncccc2c1NC(=S)NC(=O)c1ccccc1 | 11.3 |
| O=C(Nc1nccs1)c1ccc(S(=O)(=O)c2ccccc2)cc1 | 3.97 |
| C#CC[N+](C)(C)C(C#Cc1ccccc1)CC=C.[Br-] (centres unmarked) | 3.61 |
| COc1cc(CN2CCN(S(=O)(=O)c3ccccc3)CC2)cc(OC)c1OC.O=C(O)C(=O)O | -5.31 |
| Cc1cc(NC(=O)COC(=O)c2ccc(OC(F)(F)F)cc2)no1 | -8.13 |
| CCn1nnc(NC(=O)C(c2ccccc2)c2ccccc2)n1 | 9.95 |
| O=C(CN1C2CCCC1CC(NC(=O)C1CCCCC1)C2)NCc1ccc(F)cc1 (centres unmarked) | -44.3 |
| COc1cc(NC(=O)c2ccco2)c(OC)cc1NC(=O)CCC(=O)Nc1cccc(C)c1C | -9.36 |
| Cc1ccc(P(=S)(c2ccc(C)o2)N2CCOCC2)o1 | -2.43 |
| COC(=O)COc1ccc(S(=O)(=O)NCc2ccc3c(c2)OCO3)cc1 | 6.25 |

| SMILES | hERG current change (%, negative = inhibition) at 10uM [%] |
| --- | --- |
| CS(=O)(=O)N(CCc1ccccc1)CC(=O)Nc1ccc2c(c1)OCO2 | -0.238 |
| COc1cccc(C(=O)N2C(C(=O)O)CSC2c2ccccc2Cl)c1 (centres unmarked) | 8.96 |
| CC(C)CN1C(=O)NC(NS(=O)(=O)c2ccc(N)cc2)(C(F)(F)F)C1=O (centres unmarked) | 12.9 |
| CCCCNC(=O)C(=O)N/N=C/c1ccc(C(=O)OC)cc1 | -20.1 |
| COCCCNC(=O)CN(c1cccc(Cl)c1)S(C)(=O)=O | -5.06 |
| CC(C)N1CCN(Cc2ccc(-c3ccccc3Cl)o2)CC1CCO (centres unmarked) | -54.8 |
| COc1ccc(-c2nnc(-c3cccnc3)o2)cc1OC | -27.9 |
| O=C(NCCN1CCCC1)c1ccc(Cn2c(=S)[nH]c3ccc(Br)cc3c2=O)cc1 | 5.77 |
| CCc1c(O)nc(SCC(=O)Nc2ccccc2)n(-c2ccccc2)c1=O | 10.5 |
| O=[N+]([O-])c1ccc(C2=Nc3cc(Cl)ccc3OC2)cc1 | 33.9 |
| CS(=O)(=O)N(CC(=O)Nc1c(F)cccc1F)c1cccc([N+](=O)[O-])c1 | 0.947 |
| O=C(CNS(=O)(=O)c1ccc2ccccc2c1)OCc1nnc(-c2ccccc2)o1 | 6.21 |
| CCC(CCCO)CCC[C@H](C)CCC1OCCO1 (some centres unmarked) | -2.67 |
| CCOc1ccc(NC(=S)/C(=C(\[O-])c2ccc(C)c([N+](=O)[O-])c2)[n+]2ccccc2)cc1 | -1.39 |
| CC(OC(=O)CCCOc1ccccc1)C(=O)Nc1ccc(Cl)cn1 (centres unmarked) | -31.6 |
| CN(CCc1cn[nH]c1)C(=O)CC1C(=O)NCCN1Cc1cccc(Oc2ccccc2)c1 (centres unmarked) | -0.123 |
| COC(=O)c1ccc(CNC(=O)COC(=O)C2CCC(C(C)(C)C)CC2)cc1 (centres unmarked) | 3.52 |
| N=C1C(c2ccccc2)=C(O)CN1c1ccc2c(c1)OCO2 | 9.72 |
| O=C(NNC(=O)c1ccccc1O)c1ccc(S(=O)(=O)Nc2ccccc2F)cc1 | -4 |
| Cc1ccc(C(CNC(=O)Nc2ccc(Cl)cc2)N2CCN(C)CC2)cc1 (centres unmarked) | -76.8 |
